From PubChem BioAssay AID1963857 (Molecular Pharmacology Branch, DTP, NCI, 2024)
Some entries of the source have several records that differ or are many. This list holds those alone. There may be further records. The values listed for one entry are repeats across runs, samples, wells, individuals or studies. Marks such as [2022-09] give the month of the run. Signs of the kind (2×) count equal records among those shown.

Test system: K24384-001-R-PDC KRAS patient-derived spheroid viability
Assay: Anticancer human tumor K24384-001-R-PDC patient-derived pancreatic adenocarcinoma cell line growth inhibition [KRAS2]
Settings: spheroids with HUVEC and MSC; for viability, T/C: stronger effect = lower value; for IC50: compound alone
Source text: Multicellular complex tumor spheroid response to RAS pathway inhibitors in combination with a targeted agents in patient-derived cell lines with oncogenic KRAS variants from multiple cancer types
A high-throughput screen of multi-cell type tumor spheroids was designed to identify active combinations of targeted small molecules and KRAS pathway inhibitors. Complex spheroids include a stromal component modeled by human endothelial cells (HUVEC) and fibroblasts modeled by human mesenchymal stem cells (MSCs). The concentration ranges selected for each drug and investigational agent were based upon clinically achievable concentrations if the clinical Cmax of the agent was known.
Compounds. The drugs and investigational agents: BI-3406 (NSC825286), BAY-293 (NSC824723), batoprotafib (TNO155; NSC825523), sotorasib (AMG 510; NSC818433), MRTX1257 (NSC819558), elimusertib (BAY 1895344; NSC800525), molibresib (GSK525762; NSC774829), temuterkib (LY3214996; NSC803410), venetoclax (NSC766270), alisertib (NSC759677), olaparib (NSC753686), talazoparib (NSC767125), erdafitinib (NSC781556), ipatasertib (NSC767898), cabozantinib (NSC761068), nintedanib (NSC756659), abemaciclib (NSC768073), docetaxel (NSC628503), trametinib (NSC758246), and sapanisertib (NSC764658) were obtained from the National Cancer Institute (NCI) Developmental Therapeutics Program Chemical Repository. The FDA-approved anticancer drug set is available from the Developmental Therapeutics Program. […] The stock solutions were prepared in dimethyl sulfoxide (DMSO, Sigma-Aldrich, St. Louis, MO, cat. D2650) at 800-fold the tested concentration and stored at -70 degrees C prior to their use. All drugs and investigational agents were tested over a range starting from a high concentration at or near the clinical Cmax and decreasing in half-log increments. If the clinical Cmax for an agent had not been determined, the highest concentration tested was 10 microM.
Cell Culture. All cells were maintained in an incubator at 37 degrees C and 5% CO2 with 95% humidity. The PDC lines were cultured according to standard operating procedures established by the NCI PDMR (https://pdmr.cancer.gov/sops/default.htm). Briefly, all PDCs were thawed and cultured in Matrigel-coated flasks prepared with a working solution of 1X Ham's F-12 nutrient mix, without supplementation (Invitrogen, Waltham, MA, cat. 11765054), 100 U/mL penicillin-streptomycin (Invitrogen, cat. 15140122), and 2.5% Matrigel (Corning Inc., Corning, NY, cat. 354248) for the first three passages. All PDCs were cultured in complete DMEM/F-12 media containing advanced DMEM/F-12 (Invitrogen, cat. 12634028), 4.9% defined fetal bovine serum, heat inactivated (HyClone Laboratories Inc., Logan, UT, cat. SH30070.03HI), 389 ng/mL hydrocortisone (Sigma-Aldrich, cat. H4001), 9.7 ng/mL human EGF recombinant protein (Invitrogen, cat. PHG0313), 23.4 microg/mL adenine (Sigma-Aldrich, cat. A2786), 97.3 U/mL penicillin-streptomycin (Invitrogen, cat. 15140122), 1.9 mM L-glutamine (Invitrogen, cat. 25030081), and 9.7 microM Y-27632 dihydrochloride (Tocris Bioscience, Bristol, United Kingdom, cat. 1254). The PDCs were cultured in complete DMEM/F12 media without 9.7 microM Y-27632 dihydrochloride for at least two passages prior to the screen. The established cell line HOP-62 was cultured in RPMI 1640 medium, HEPES (Invitrogen, cat. 22400105) with 10% defined fetal bovine serum (HyClone Laboratories Inc., cat. SH30070.03) and 2 mM L-glutamine (Invitrogen, cat. 25030081). The pooled donor HUVEC were cultured in endothelial cell growth medium 2 (PromoCell, Heidelberg, Germany, cat. C-22011) and the hMSC were cultured in mesenchymal stem cell growth medium 2 (PromoCell, cat. C-28009). For all experiments, HUVEC and hMSC were used at passages </=5, while the malignant cell lines were used at passages </=15. […]
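Note: spheroids exposed to agents for 7 days before readout.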
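Throughout, for viability, T/C: 100% = DMSO vehicle control viability.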

SMILES	viability, T/C (compound alone 0.1 µM)	viability, T/C (compound alone 0.316 µM)	viability, T/C (compound alone 1 µM)	viability, T/C (compound alone 3.16 µM)	viability, T/C (compound alone 10 µM)	other results
CC1OCC2(CCN(c3cnc(Sc4ccnc(N)c4Cl)c(N)n3)CC2)C1N (stereo unspecified)	57.4, 87.8, 74.7, 77.6, 88.5, 83.7, 85.7, 81.1, 76.6, 71, 73.2% [2021-08] and 80.8, 93.8, 75.9, 76, 81.1, 84.9, 73.7, 78.1% [2021-09]	62.4, 89.5, 86.5, 66.5, 72.6, 72, 78.7, 76.4, 69.1, 62.5, 60.5% [2021-08] and 65.8, 81, 73.7, 74.6, 65.3, 69.1, 52.5, 73% [2021-09]	100, 108, 105, 62.6, 56.4, 67.3, 68.8, 72.1, 64.6, 69.7, 73.4% [2021-08] and 82.5, 61.2, 58.8, 69.9, 55.8, 73.7, 49.7, 79.6% [2021-09]	56.8, 76.7, 62.6, 51.4, 58.8, 64, 65.1, 67.4, 71.2, 59.4, 55.5% [2021-08] and 59.6, 75, 56.2, 62.8, 70.2, 78.9, 42.5, 66.7, 55.3% [2021-09]	62.9, 107, 71.1, 56.5, 64.3, 78, 70.9, 93.7, 76.9, 62.2, 55.7% [2021-08] and 62.3, 57.2, 61.1, 63.6, 62, 68, 46.5, 71.8, 64.6% [2021-09]	IC50 (run of 09/02/2021): > 10 µM and 593 nM
COC(=O)c1ccc2c(C(=Nc3ccc(N(C)C(=O)CN4CCN(C)CC4)cc3)c3ccccc3)c(O)[nH]c2c1		73.6, 75.7, 122, 116, 119%	86.2, 74.7, 125, 113, 114%	68.7, 62.8, 95.2, 84.9, 82.7%		
COc1cc2nc(C)nc(NC(C)c3cc(N)cc(C(F)(F)F)c3)c2cc1OC1CCOC1 (stereo unspecified)		89.5, 103 (2×), 75.3, 76.1, 94.1, 98.6, 87.5, 95, 96.1, 86.8% [2021-08] and 76.1, 81.4, 94.9, 86.6, 74.9% [2021-09]	90.8, 102, 93.1 (2×), 83, 90.6, 99.5, 101, 96.1, 95.7, 93.3% [2021-08] and 87.5, 89.3, 107, 89, 66.5% [2021-09]	93.3, 96.3, 66.1, 90.8, 102 (2×), 101, 95.5, 99.1, 93.2, 84.8% [2021-08] and 92.6, 105, 108, 99.9, 66.4% [2021-09]	111, 114, 86.4, 89.9, 106, 99.8, 73.8, 117, 97.1, 79.4, 75.1% [2021-08] and 111, 116, 114, 117, 82.1% [2021-09]	
CC1COCCN1c1cc(-c2ccnn2C)c2ccnc(-c3ccn[nH]3)c2n1 (stereo unspecified)						viability, T/C (compound alone 0.01 µM): 87.8, 93.8, 86.1, 113%
COc1cc(OC)cc(N(CCNC(C)C)c2ccc3ncc(-c4cnn(C)c4)nc3c2)c1	135, 99.6, 103, 121, 118%					
CNCc1ccccc1-c1csc(C(C)Nc2nc(C)nc3cc(OC)c(OC)cc23)c1 (stereo unspecified)	100, 107, 89.4, 102, 108 (2×), 90.3, 97.3, 99.7, 97.1, 95% [2021-08] and 89.9, 79.9, 89.7, 102, 94, 98.5% [2021-09]	101, 111, 86, 83, 115, 95.1, 80.3, 107, 99.9, 84.5, 100% [2021-08] and 88.5, 64.5, 61.8, 90.2, 87.2, 67.3% [2021-09]	110, 114, 77.3, 87.4, 113, 86.6, 84.4, 99.8, 105, 96.6, 82.6% [2021-08] and 92.2, 74.1, 77.4, 105, 92.3, 81.6% [2021-09]	103, 0.91, 0.15, 0.17, 0.19, 0.13, 0.35, 0.14, 0.34, 0.41% [2021-08] and 0.15, 0.14, 0.2, 0.18% [2021-09]		IC50 (run of 08/19/2021): 1.64 µM and 5.74, 1.89, 1.5, 1.63 µM [2021-08]
CCNC(=O)CC1N=C(c2ccc(Cl)cc2)c2cc(OC)ccc2-n2c(C)nnc21 (stereo unspecified)	106, 84.2, 79.6, 89.5, 86.1%					IC50: 3.51 µM, > 10 µM, 3.28 µM, 9.3 µM, 6.19 µM
COc1cc(Nc2ncc3c(n2)-c2ccc(Cl)cc2C(c2c(F)cccc2OC)=NC3)ccc1C(=O)O	68.2, 60, 60.4, 101, 81.7%	50.2, 41.9, 52.3, 90.2, 53.3%	54.6, 44.2, 59.3, 105, 63.4%	56.9, 55.7, 57.4, 101, 68.5%	61.9, 62.9, 69.6, 86.3, 89.6%	viability, T/C (compound alone 0.0316 µM): 72.2, 67.8, 75.8, 99.3, 79.5%
CN(C)C/C=C/C(=O)Nc1cc2c(Nc3ccc(F)c(Cl)c3)ncnc2cc1O[C@H]1CCOC1						viability, T/C (compound alone 0.000316 µM): 130, 99.9, 137, 110, 93.2%; viability, T/C (compound alone 0.00316 µM): 123, 88.1, 104, 94.2, 88%
C=CC(=O)N1CCN(c2nc(OCC3CCCN3C)nc3c2CCN(c2cccc4cccc(C)c24)C3)CC1CC#N (stereo unspecified)	111, 102, 95.5, 109 (2×), 114, 89.9, 99, 86.9, 97.7, 89.6% [2021-08] and 108, 80.9, 98.6, 82.2, 105% [2021-09]	106, 109, 101, 97.8, 121, 96.2, 105, 80.6, 96, 111, 93.2% [2021-08] and 131, 93.7, 93.3, 65.8, 87.4% [2021-09]	131, 108, 95.2, 88.5, 122, 85, 97.1, 82.1, 93.8, 80, 106% [2021-08] and 101, 82.8, 84.5, 67.3, 89.2% [2021-09]	122, 19.1, 33.2, 27.7, 11, 14.4, 0.62, 8.46, 0.35, 0.57, 12.4% [2021-08] and 0.48, 10.9, 4.99, 0.47, 0.3% [2021-09]		viability, T/C (compound alone 0.0316 µM): 106, 114, 110 (2×), 98, 92.7, 112, 89.9, 107, 90.2, 99.4% [2021-08] and 118, 93.6, 110, 94.6, 95% [2021-09]; IC50 (run of 08/19/2021): > 3.16 µM, 2.12 µM, 2.32 µM, 2.07 µM, 1.78 µM
C=CC(=O)N1CCN(c2nc(=O)n(-c3c(C)ccnc3C(C)C)c3nc(-c4c(O)cccc4F)c(F)cc23)C(C)C1 (stereo unspecified)	118, 97.4, 98.8 (2×), 115, 104, 109 (2×), 105, 91.5, 88.3% [2021-08] and 85.9, 103 (2×), 101, 108, 104% [2021-09]	111, 114, 101 (2×), 95, 105, 131, 108, 103, 94.1, 94.9% [2021-08] and 98, 100, 93.6, 101, 98.2, 98.9% [2021-09]	90.8, 110, 102, 94, 104, 114, 107, 91.2, 93.8, 109, 100% [2021-08] and 83.9, 92.6, 89.4, 99.6, 115, 104% [2021-09]	77.5, 106, 89.5, 125, 83.8, 87.5, 84.8, 103, 86.6, 90.2, 89.6% [2021-08] and 76, 102 (2×), 74.5, 107, 52.8% [2021-09]	71.1, 70, 73, 114, 59.7, 61.7, 42.7, 43.6, 52.2, 47.7, 57.3% [2021-08] and 46.9, 48.3, 46, 64.9, 72.8, 40.1% [2021-09]	IC50 (run of 08/26/2021): 8.19 µM, 8.78 µM, > 10 µM, 9.37 µM; IC50 (run of 09/02/2021): 8.83 µM, 9.63 µM, 8.62 µM, > 10 µM, 4.05 µM
CC1(C)CCC(CN2CCN(c3ccc(C(=O)NS(=O)(=O)c4ccc(NCC5CCOCC5)c([N+](=O)[O-])c4)c(Oc4cnc5[nH]ccc5c4)c3)CC2)=C(c2ccc(Cl)cc2)C1				46.4, 35.8, 66.7, 92.9, 50.6%		
CC(C)n1nc(-c2ccc3oc(N)nc3c2)c2c(N)ncnc21						viability, T/C (compound alone 0.001 µM): 79.2, 110, 98.7, 92.9, 83.3%; IC50: 4.85, 7.49, 13.5, 11.7, 21.6 nM
